Entries after “also recorded” stand apart in the source; their conditions may differ.

Experimental findings from patent publication US20200400567A1, “FUSION POLYPEPTIDE” (PEKING UNIVERSITY, priority 2017, published 2020) are described below.

The target of experiment [1] is T1, M3R receptor (Homo sapiens, UniProt P20309, DEL260-491).
T1 construct: pDisplay N-terminal leader (vector stated); expressed in transfected cells; host or cells: HEK293T
T1 sequence (P20309 with tags, fused parts or gaps DEL260-491): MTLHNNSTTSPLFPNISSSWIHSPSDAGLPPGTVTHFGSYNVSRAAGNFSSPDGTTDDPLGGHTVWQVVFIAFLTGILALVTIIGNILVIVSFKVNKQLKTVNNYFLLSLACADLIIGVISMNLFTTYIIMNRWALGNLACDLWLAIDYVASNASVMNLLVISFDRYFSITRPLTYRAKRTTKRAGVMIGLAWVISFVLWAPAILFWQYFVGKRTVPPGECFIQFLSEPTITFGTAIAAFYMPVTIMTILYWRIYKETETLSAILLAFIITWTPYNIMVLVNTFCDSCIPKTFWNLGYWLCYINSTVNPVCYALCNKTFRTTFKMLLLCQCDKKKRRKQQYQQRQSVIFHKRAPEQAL
Briefly: ICL3-truncated M3R acetylcholine sensors (GRAB-ACh4.0), Opera Phenix and confocal perfusion in HEK293T cells. The class given is cell-based. The protocol:
Opera Phenix™ enables confocal imaging of 60 wells in the center of a 96-well plate at a time, using a 63× water lens. Before the experiment, the cell medium was exchanged with 100 μL of the physiological solution, and the plate was placed on a sample holder and put into the instrument. The appropriate imaging focal plane, excitation wavelength and laser intensity, imaging wells and the imaging field of each well were set. After running the program, all selected areas will be automatically imaged by the instrument. After the first imaging was completed, the 96-well plate was taken out, and the physiological solution in each well was exchanged with a physiological solution containing a drug of desired concentration, and imaging was performed again.
After the two images were completed, using the Harmony analysis software, red fluorescence from mCherry was employed to locate the membrane area of the cells in each field (the CAAX sequence in the RFP enables it to be located on the membrane), and the number of ROI was counted. The cpEGFP and mCherry fluorescence intensity ratio (GR ratio) in the ROI was calculated, and finally a report of the analysis results was exported. Comparing the change of GR ratio before and after adding drug, it can be determined whether the fluorescent sensor responds to the drug and the strength of the response.

The test system of experiment [2] is Gαq-mediated signal transduction pathway. The experiment is described as follows: TGFα release in Gαq stable cell lines. In kind it is cell-based. The following applies: gradient concentrations of ACh. From the text:
The coupling of GRAB-ACh4.0 and downstream Gαq was detected. First, three stable cell lines were constructed based on the Gαq cell line: M3R (marked as CHRM3 in FIG. 51), GRAB-ACh4.0, and blank (marked as Gq in FIG. 51) cell lines; then, the release of TGFα was used to characterize the extent to which the Gαq protein was activated. […], causing the release of TGF-α with alkaline phosphatase even when there is no signal from Gαq. Therefore, TPA was added to cells as a positive control.

B1: GRAB-ACh4.0: positions 260-491 of M3R receptor truncated, cpEGFP inserted, linkers GG and HNAK (protein)
chain: MTLHNNSTTSPLFPNISSSWIHSPSDAGLPPGTVTHFGSYNVSRAAGNFSSPDGTTDDPLGGHTVWQVVFIAFLTGILALVTIIGNILVIVSFKVNKQLKTVNNYFLLSLACADLIIGVISMNLFTTYIIMNRWALGNLACDLWLAIDYVASNASVMNLLVISFDRYFSITRPLTYRAKRTTKRAGVMIGLAWVISFVLWAPAILFWQYFVGKRTVPPGECFIQFLSEPTITFGTAIAAFYMPVTIMTILYWRIYKETEGGNVYIKADKQKNGIKANFHIRHNIEDGGVQLAYHYQQNTPIGDGPVLLPDNHYLSVQSKLSKDPNEKRDHMVLLEFVTAAGITLGMDELYKGGTGGSMVSKGEELFTGVVPILVELDGDVNGHKFSVSGEGEGDATYGKLTLKFICTTGKLPVPWPTLVTTLTYGVQCFSRYPDHMKQHDFFKSAMPEGYIQERTIFFKDDGNYKTRAEVKFEGDTLVNRIELKGIDFKEDGNILGHKLEYNHNAKTLSAILLAFIITWTPYNIMVLVNTFCDSCIPKTFWNLGYWLCYINSTVNPVCYALCNKTFRTTFKMLLLCQCDKKKRRKQQYQQRQSVIFHKRAPEQAL
For B1, the detectable acetylcholine concentration in experiment [1] (Opera Phenix) is 10^−9 to 10^−5 mol/L. Also, in experiment [1] (saturated ACh, confocal perfusion), the “average response of 18 cells” value is “more than 250%”. In addition, the “response in a single cell” value in experiment [1] (saturated concentration of ACh, confocal perfusion) is on record as “more than 250%”. For the same molecule, in experiment [2], the “activation of Gαq-mediated signal transduction pathway” value is “does not activate the downstream Gq-mediated signaling pathway; also recorded: did not activate the Gαq-mediated signal transduction pathway”.
